# Laboratory results as given in PubChem BioAssay AID526 (National Center for Advancing Translational Sciences (NCATS), 2006).
# Among all 67,000 compounds or so, fewer than 10 were called active. Inconclusive results, whose numbers are uncertain, are shown with a selection of clear calls. Calls follow the shape of the dose curve; as a rule, active = well fitted activation curve with a large enough effect (not every such curve was filed as active); inconclusive = small, poorly fitted or top-dose-only effect, or another doubt; inactive = no such curve, though single readings can be large or run the other way.
# Assay: Ubiquitin-GFP Assay
# Conditions: Ubiquitin-GFP reporter cells, proteasome inhibition, GFP fluorescence; activation (GFP accumulation): at 45.9 µM (top of the series), untreated = 0%, 10 µM MG-132 = 100% unless noted
# Procedure, shortened: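 Proteasome block read as GFP accumulation: ubiquitin(G76V)-GFP U2OS cells exposed to compound (2.9 nM–46 uM) for 4 hr at 37 C. Normalization used untreated cells as 0% and 10 uM MG-132 as 100%; concentration-response curves fitted.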
row,SMILES,activation (GFP accumulation)
1,O=S(=O)(NC1CCCCC1)c1ccc(Br)cc1,"inconclusive: 26.4% [activator] [at 9.17 µM, untreated = 0%, 10 µM MG-132 = 100%]"
2,O=C(Nc1ccccc1F)NC1CCN(Cc2nnnn2Cc2ccc(F)cc2)CC1,inactive
3,CCCCNc1c(CN)cnc2cc(Cl)ccc12,"inactive: -1.04% [at 9.17 µM, untreated = 0%, 10 µM MG-132 = 100%]"
4,CCNc1ncc2nc(-c3cc(F)cc(F)c3)c(=O)n(-c3ccccc3)c2n1,inconclusive: 50% [activator]
5,Cc1ccc(Nc2cc(-n3nc(C)cc3C)ncn2)c(C)c1,"inconclusive: 32.2% [activator] [at 9.17 µM, untreated = 0%, 10 µM MG-132 = 100%]"
6,COc1ccc([C@@H]2OC[C@]3(COC(C)=O)[C@H](C)C=C(C)[C@@H]2[C@H]3C)cc1,inactive
7,Cc1ccc(C(=O)Nc2ccc3c(c2)OCO3)cc1S(=O)(=O)N1CCCC1,inactive
8,O=C1CCCc2sccc2N1,inconclusive: 39.6% [activator]
9,CCCCNC(=O)CCC(=O)Nc1ccc2nc(N3CCOCC3)cc(C)c2c1,inactive
10,COc1ccc(OC)c(Nc2ncnc3c2cnn3-c2cccc(C)c2)c1,inconclusive: 45.2% [activator]
11,Cc1ccc(S(=O)(=O)N(Cc2ccccc2)Cc2ccco2)cc1,inconclusive: 0% [activator]
12,O=C1OCC2=C1C(c1ccc3c(c1)OCO3)Sc1ccccc1N2 (centres undefined),inactive
13,CC(=O)c1c(NC(=O)C(C)C)nc(C)nc1-c1ccccc1,"inconclusive: 40.9% [activator] [at 9.17 µM, untreated = 0%, 10 µM MG-132 = 100%]"
14,N[C@H](CCC(=O)N[C@H](CSN=O)C(=O)NCC(=O)O)C(=O)O,inactive
15,COc1ccccc1NC1=NC2(CCCC2)N=C(N)N1,inconclusive: 10.9% [activator]
16,CC(=O)c1ccc(OCC(O)CN2CCCC(C)C2)cc1 (centres undefined),inconclusive: -5.24% [activator]
17,CC1CCN(CC[S-])CC1.O.O.[Cl][Pt],"inconclusive: 38.5% [activator] [at 9.17 µM, untreated = 0%, 10 µM MG-132 = 100%]"
18,CCN(CC)c1nc2cc(OC)ccc2cc1C#N,inactive
19,COc1cccc(Nc2ncc3nc(-c4cccs4)c(=O)n(-c4ccccc4)c3n2)c1,inconclusive: 524% [activator]
20,N#Cc1nc(Cc2ccccc2)oc1NCc1cccnc1,inconclusive: 33.6% [activator]
21,CCn1cc(C(=O)NCc2ccc(C)o2)c2cc(OC)c(OC)cc2c1=O,inconclusive: -6.67% [activator]
22,Cc1occc1C(=O)Nc1ccccc1C(=O)O,inactive
23,O=C(NCCN1CCCC1=O)Nc1ccccc1,inconclusive: 36.2% [activator]
24,COc1ccccc1-c1nccc(NCc2cnc(C)cn2)n1,inactive
25,COc1ccccc1N(CC(=O)NCCSc1ccccc1)S(C)(=O)=O,"inconclusive: -2.86% [activator] [at 9.17 µM, untreated = 0%, 10 µM MG-132 = 100%]"

row,SMILES,activation (GFP accumulation)
1,CCOC(=O)Nc1cc(=O)c2ccccc2o1,"inconclusive: 31.3% [activator] [at 9.17 µM, untreated = 0%, 10 µM MG-132 = 100%]"
2,N#CCCn1c(=O)c(-c2cccs2)nc2cnc(Nc3ccccc3)nc21,inconclusive: 139% [activator]
3,CC1(C)Oc2ccc(C(=O)NC3CCCC3)cc2N(CC(=O)NC2CCCCC2)C1=O,inconclusive: 0% [activator]
4,O=C(CN1CCOc2ccccc21)NCc1cccs1,inconclusive: -9.05% [activator]
5,CCCn1c(SCC(=O)Nc2ccc3c(c2)OCCO3)nnc1-c1ccco1,inactive
6,COc1ccc(NC(=O)Nc2ccc(N(C)C)cc2)cc1,inactive
7,CCNc1ncc2nc(-c3cccs3)c(=O)n(-c3ccc(OC)cc3)c2n1,inconclusive: 189% [activator]
8,COc1ccc(CCNC(=O)Cn2c(-c3nonc3N)nc3ccccc32)cc1OC,inactive
9,O=C(C1CCN(S(=O)(=O)c2ccc3ccccc3c2)CC1)N1CCN(c2ncccn2)CC1,inactive
10,O=C(c1ccc2nc(N3CCOCC3)sc2c1)N1CCC2(CC1)OCCO2,inconclusive: 30.6% [activator]
11,CN(C)S(=O)(=O)c1cccc(C(=O)N(Cc2ccc(F)cc2)Cc2ccco2)c1,inconclusive: 30.8% [activator]
12,CC1N(C)c2cc(NC(=O)c3ccco3)ccc2C1(C)C (centres undefined),inactive
13,COC(=O)N1CCC2(CCN(Cc3nccs3)CC2)CC1,inactive
14,CC(=O)Nc1cccc(C(=O)Oc2cccc(C)c2)c1O,inactive
15,COc1ccc(CNC(=O)C(C#N)c2nc3ccccc3nc2N2CCCC2)cc1 (centres undefined),inconclusive: 844% [activator]
16,COc1ccc(-c2noc(CSc3nc(-c4ccccc4)cc(=O)[nH]3)n2)cc1OC,inactive
17,Cc1cc(C)nc(NS(=O)(=O)c2ccc(NC(=O)c3ccc4c(c3)OCO4)cc2)n1,"inconclusive: 11.9% [activator] [at 9.17 µM, untreated = 0%, 10 µM MG-132 = 100%]"
18,C=CCc1c(C)nc(SC)nc1Nc1ccc(C(C)=O)cc1,inconclusive: 13% [activator]
19,O=C(Nc1ccc(S(=O)(=O)Nc2nccs2)cc1)C1CCCCC1,inconclusive: 2.71% [activator]
20,O=C(O)c1c2c(c(O)c3c1CN(C1CCCCC1)CO3)OCN(C1CCCCC1)C2,"inactive: -9.45% [at 9.17 µM, untreated = 0%, 10 µM MG-132 = 100%]"
21,Cc1ccc(C2=[N+]([O-])C3(CCCCC/C3=N\O)N(O)C2(C)C)o1 (centres undefined),"inconclusive: 25.4% [activator] [at 9.17 µM, untreated = 0%, 10 µM MG-132 = 100%]"
22,COc1cc(-c2nnc(COc3ccc4ccccc4c3)o2)cc(OC)c1OC,"inconclusive: -4.55% [activator] [at 9.17 µM, untreated = 0%, 10 µM MG-132 = 100%]"
23,CCCCOC(=O)CSc1nnc(N)s1,inconclusive: 15.4% [activator]
24,CC1CCN(c2nc3ccccc3nc2C(C#N)C(=O)NC2CCCCC2)CC1 (centres undefined),inconclusive: 94.8% [activator]
25,O=C(O)c1ccc(S(=O)(=O)c2ccc3c(c2)C(=O)N(CC2CCCO2)C3=O)cc1 (centres undefined),inconclusive: 7.41% [activator]

row,SMILES,activation (GFP accumulation)
1,CCCOC(=O)/C(C(N)=NCc1ccccc1)=C(\O)OCCC,"inconclusive: 41.8% [activator] [at 9.17 µM, untreated = 0%, 10 µM MG-132 = 100%]"
2,CCNc1ncc2nc(-c3ccc(Cl)cc3)c(=O)n(-c3ccccc3)c2n1,inconclusive: 68% [activator]
3,c1ccc(C(Cc2nc(-c3cccnc3)no2)c2ccccc2)cc1,inconclusive: 8.7% [activator]
4,COCCOC(=O)C1=C(C)N=c2s/c(=C\c3cccs3)c(=O)n2C1c1cccs1 (centres undefined),inconclusive: 46.2% [activator]
5,CC/C(=C\C(=O)c1ccncc1)Nc1ccc(O)cc1,inconclusive: -5% [activator]
6,O=C(O)c1cc2cc(OCc3ccccc3)ccc2[nH]1,inconclusive: 3.84% [activator]
7,CCOC(=O)c1oc2cc(O)ccc2c(=O)c1-c1ccccc1OC,inconclusive: 32.5% [activator]
8,Nc1cc(=O)[nH]c(SCc2nc3ccccc3n2Cc2ccccc2)n1,"inconclusive: 30.1% [activator] [at 9.17 µM, untreated = 0%, 10 µM MG-132 = 100%]"
9,CCCC(=O)Nc1cccc(-c2nc3cc(C)c(C)cc3o2)c1,"inconclusive: -0.26% [activator] [at 9.17 µM, untreated = 0%, 10 µM MG-132 = 100%]"
10,Cc1cc2ccc(OC(=O)c3ccc(N=C(N)N)cc3)cc2oc1=O,"inactive: 0% [at 9.17 µM, untreated = 0%, 10 µM MG-132 = 100%]"
11,CN1CCN(CCC(=O)Nc2ccc(F)c(F)c2)CC1,inconclusive: -4.35% [activator]
12,c1ccc(Oc2ccc(-n3cnnn3)cc2)cc1,inconclusive: 52.1% [activator]
13,CCC(Sc1nc2n[nH]c(C)c2c(=N)n1-c1cccc(Cl)c1)C(=O)NCCOC (centres undefined),inconclusive: -5.73% [activator]
14,CCOc1ccc(NC(=O)c2nccnc2CO)cc1,inactive
15,Clc1ccc(CSc2ncn[nH]2)cc1,inconclusive: 30.4% [activator]
16,C=C1CC[C@@H]2O[C@]2(C)CC[C@@H]2[C@H]1CC2(C)C,inactive
17,Cc1oc2c(O)c(O)ccc2c(=O)c1-c1cnn(-c2ccccc2)c1,inconclusive: -9.17% [activator]
18,O=C(c1cc(-c2ccc3c(c2)OCO3)on1)N1CCN(c2ccccc2)CC1,inactive
19,N#CC(C(=O)NC1CCCCC1)c1nc2ccccc2nc1N1CCN(c2ccc(F)cc2)CC1 (centres undefined),inconclusive: 71.8% [activator]
20,COCc1cc(C)nc(Nc2ccc(C)cc2C)c1C#N,inconclusive: 38.4% [activator]
21,CCOC(=O)N1CCN(Cc2c(F)cccc2Cl)CC1,inconclusive: 14% [activator]
22,C[C@@]12C(=O)OC(=O)[C@@]1(C)[C@@H]1CC[C@@H]2O1,inactive
23,CCOC(=O)N1CCC(N2C(=O)c3ccccc3C2=O)CC1,inconclusive: 30.1% [activator]
24,CCN(C(=O)c1cc(Cl)ccc1OC)c1ccccc1,"inconclusive: 30.6% [activator] [at 9.17 µM, untreated = 0%, 10 µM MG-132 = 100%]"
